Data: PubChem BioAssay AID2451 (National Center for Advancing Translational Sciences (NCATS), 2010)
Values joined by “and” are separate entries in the source; they are usually repeats but may differ in a detail not shown here. Equal values may be shown once. Among all 290,000 compounds or so, about 2,100 (0.72%) were called active. The shares of active, inactive and inconclusive entries below differ from those in the screen. Calls follow the shape of the dose curve; as a rule, active = well fitted inhibition curve with a large enough effect; inconclusive = small, poorly fitted or top-dose-only effect, or effect the other way; inactive = flat fitted curve, though single readings scatter. A potency beside an inconclusive call is a rough fit, not a confirmed value.

Molecular target: Fructose-bisphosphate aldolase (Giardia intestinalis (strain ATCC 50803 / WB clone C6)) (UniProt A8B2U2)
Test: qHTS Assay for Inhibitors of Fructose-1,6-bisphosphate Aldolase from Giardia Lamblia; also: nearly all actives have a fitted effect of over 55% in size
Details: purified Giardia FBPA; activity, negative = inhibition: at 59.6 µM (top of the series) unless noted
Outline: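 40 nM FBPA preincubated 10 min at RT with compound (up to 57.5 uM final), then substrate plus GAPDH/TPI/NAD/arsenate coupling and diaphorase/resazurin added. Fluorescence read after 20 min at RT, 525/598 nm.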
% is scaled to controls: 0 for no effect and ±100 for the full control effect; potency is read from the fitted curve at half-maximal effect; tags tell the direction and shape of the fitted curve.

Chain of UniProt A8B2U2 (A8B2U2 whole entry, looked up): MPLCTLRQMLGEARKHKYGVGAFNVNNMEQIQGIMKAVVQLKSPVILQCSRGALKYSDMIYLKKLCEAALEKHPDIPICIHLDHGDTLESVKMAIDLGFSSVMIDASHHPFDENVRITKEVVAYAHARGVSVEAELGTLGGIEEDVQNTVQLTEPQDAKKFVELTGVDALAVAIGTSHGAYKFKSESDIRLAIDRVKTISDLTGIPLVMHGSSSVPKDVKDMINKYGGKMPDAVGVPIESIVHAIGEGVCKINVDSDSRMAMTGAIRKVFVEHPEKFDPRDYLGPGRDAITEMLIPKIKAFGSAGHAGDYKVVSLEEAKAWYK

Row | SMILES | activity, negative = inhibition | Potency
1 | COc1cccc(-c2nc(CS(=O)CC(=O)NCCCOC(C)C)c(C)o2)c1 (stereo not drawn) | inactive: 1.12% | –
2 | Fc1ccccc1-n1[nH]nnc1=S | – | inconclusive: 39.8 µM [inhibitor, single point]
3 | Nc1nc(SCC(=O)Nc2ccc([N+](=O)[O-])cc2Br)n[nH]1 | inactive: 7.06% | –
4 | Cc1cc2cc(C)c3nnc(SCC(=O)N4CCc5ccccc54)n3c2cc1C | inactive: -0.248% | –
5 | CC1(C)Cc2nc3[nH]c(=S)[nH]c(=O)c3cc2CO1 | – | inconclusive: 14.1 µM [inhibitor, partial curve]
6 | Cc1ccc(-n2c(C)cc(/C([O-])=C(/C(=S)Nc3ccc(F)c(Cl)c3)[n+]3ccccc3)c2C)cc1 | – | inconclusive: 11.2 µM [inhibitor, partial curve]
7 | O=C(c1cccc(C(F)(F)F)c1)C1CCCN(C(=O)CCCn2cncn2)C1 (stereo not drawn) | inactive: -0.202% | –
8 | N#Cc1c(N)oc(-c2ccc3c(c2)OCO3)c1-c1ccc2c(c1)OCO2 | – | inconclusive: 9.98 µM [inhibitor, partial curve]
9 | Cc1ccc2nc(N3CCN(c4cccc(C)c4C)CC3)c3nnnn3c2c1 | inactive: -2.81% | –
10 | CC(C)=CCOc1c2occc2cc2ccc(=O)oc12 | – | inconclusive: 15.8 µM [inhibitor, single point] and inconclusive: 17.7 µM [inhibitor, single point]
11 | O=c1c2ccccc2c(-c2ccccc2)nn1Cc1ccc(Cl)cc1 | inactive: 10.4% | –
12 | CCn1c(SCC(=O)N/N=C/C(C)=C\c2ccco2)nnc1-c1ccccc1 | – | inconclusive: 11.2 µM [inhibitor, partial curve]
13 | CCOC(=O)CSC1=C(C#N)C(c2ccccc2)C(C(C)=O)=C(C)N1 (stereo not drawn) | inactive: -19.3% | –
14 | COc1ccc2oc(=O)c(N3C(=O)c4ccccc4C3=O)cc2c1 | inactive: -1.29% | –
15 | c1ccc(-n2ncc3c(NC4CCCCCC4)ncnc32)cc1 | – | inconclusive: 15.8 µM [inhibitor, partial curve]
16 | O=c1c2ccccc2nc(-c2cccc(Cl)c2)n1O | – | inconclusive: 44.6 µM [inhibitor, single point]
17 | CCCCn1c(NC(=O)c2ccco2)c(C(=O)OCC)c2nc3ccccc3nc21 | – | active: 5 µM
18 | CCCC[C@@H](CNC)NC[C@H](NCCCCC1CCCCC1)C(C)C | – | inconclusive: 12.6 µM [activator, partial curve]
19 | COc1ccccc1OCCCN1C(=O)C(=O)c2cccc(C)c21 | – | inconclusive: 15.8 µM [inhibitor, single point]
20 | COc1ccccc1OCC#CCN1CCOCC1 | – | active: 11.2 µM
21 | O=C(O)c1ccccc1SCC(=O)N1c2ccccc2Sc2ccccc21 | – | inconclusive: 25.1 µM [activator, single point]
22 | Cn1c(-c2ccc(F)cc2)cnc1NCc1ccccc1F | – | active: 28.2 µM
23 | O=C(CCSc1ccc(Cl)cc1)N1CCN(c2ccc(O)cc2)CC1 | inactive: -6.58% | –
24 | CC(C)c1ccc(C(=O)CSc2ncn[nH]2)cc1 | – | inconclusive: 15.8 µM [inhibitor, partial curve]
25 | CC(C)CC(=O)NC(=S)Nc1cccc2nsnc12 | – | inconclusive: 14.1 µM [inhibitor, partial curve]
26 | CCOc1cc(C=C2C(=O)NC(=O)NC2=O)ccc1OS(=O)(=O)c1ccccc1 | – | inconclusive: 15.8 µM [inhibitor, partial curve]

Row | SMILES | activity, negative = inhibition | Potency
27 | CCCC[C@@H](CN[C@H](C)CNC)NCC1CCC(C(C)(C)C)CC1 (stereo partly drawn) | – | inconclusive: 8.91 µM [activator, partial curve]
28 | COc1cc(C)c(CNc2cccc(C)c2)cc1C | – | inconclusive: 15.8 µM [inhibitor, single point]
29 | CN(CCO)CCOCCOc1cccc2ccccc12 | – | inconclusive: 15.8 µM [inhibitor, partial curve]
30 | C=C1SC(=Nc2ccccc2Cl)N(C(=O)c2sc3ccccc3c2Cl)C1(C)C | inactive: 2.95% | –
31 | CCCOc1ccc(OCCNC2CCCC2)cc1 | – | inconclusive: 7.06 µM [inhibitor, partial curve]
32 | O=C(CN1CCOCC1)Nc1cc(C(F)(F)F)ccc1Cl | inactive: 6.79% | –
33 | COC(=O)c1c(C)[nH]c(-c2csc(N)n2)c1C | inactive: -27.3% | –
34 | O=C1CCC(C(=O)Nc2nnc(C3CC3)s2)=NN1 | – | inconclusive: 19.9 µM [inhibitor, partial curve]
35 | Cc1ccc(C)c(/C=C/C(=O)c2ccccc(=O)c2O)c1 | – | inconclusive: 5 µM [inhibitor, single point]
36 | Cc1nc(NC(=O)CN2CCCCC2)sc1C(=O)N(C)C | – | active: 3.16 µM
37 | CC(C)NC(=O)c1cc(-c2ccc3c(c2)OCO3)on1 | inactive: -2.78% | –
38 | CCOCC(=O)Nc1nc2ccc(OCC)cc2s1 | inactive: -1.21% | –
39 | CC(C)c1ccccc1OCC(O)CN1CCN(S(=O)(=O)c2ccc([N+](=O)[O-])cc2)CC1 (stereo not drawn) | – | active: 17.8 µM
40 | Clc1cccc(OCc2nnc(-c3ccccc3Br)o2)c1 | inactive: 5.63% | –
41 | COc1ccc(Nc2ncnc3sc(C)cc23)c(OC)c1 | – | inconclusive: 31.6 µM [inhibitor, single point]
42 | COc1cccc2sc(Nc3nnc(-c4cccs4)o3)nc12 | – | inconclusive: 12.6 µM [inhibitor, partial curve, poor fit]
43 | O=C(O)c1ccc(/C=C2\CCCc3c2nc2ccccc2c3C(=O)O)cc1 | inactive: -14.3% | –
44 | COc1ccc(/C=C/NC(=O)c2ccc(OC)cc2)cc1 | – | inconclusive: 2.23 µM [inhibitor, partial curve]
45 | O=C(O)c1ccc(COc2ccc3c(c2)CCC3)cc1 | – | inconclusive: 19.9 µM [activator, partial curve]
46 | CCNC(=S)Nc1ccc(Cc2nc3ccccc3[nH]2)cc1 | inactive: 6.75% | –
47 | Cn1c(CCN2CCCCC2)nc2cc(NS(=O)(=O)c3ccc(Cl)cc3)ccc21 | inactive: 15.9% | –
48 | Cc1cccc(N2CCc3c2nc2ccccc2c3N)c1 | – | inconclusive: 11.2 µM [inhibitor, partial curve] and inconclusive: 14.1 µM [inhibitor, partial curve]
49 | Cc1ccc(C)c(-c2nc3cc(N)ccc3o2)c1 | inactive: -8.98% | –
50 | Cc1onc(-c2ccccc2)c1C(=O)NC(=S)NNC(=O)c1ccncc1 | – | inconclusive: 17.7 µM [activator, single point]
51 | Cc1cc(/C=C\c2ccc3cc(N(C)C)ccc3[n+]2C)c(C)n1-c1ccccc1 | – | inconclusive: 6.29 µM [inhibitor, full curve]
52 | C[N+](C)=C1SCC(C)(/C=N/O)S1 (stereo not drawn) | – | active: 14.1 µM

Row | SMILES | activity, negative = inhibition | Potency
53 | CC1=CC(C)(C)N(C(=O)CN2C(=O)CCC2=O)c2ccccc21 | – | inconclusive: 14.1 µM [inhibitor, partial curve]
54 | CC(=O)Nc1ccc(S(=O)(=O)Nc2ccccn2)cc1 | inactive: 2.8% | –
55 | Cc1cccc(C(=O)OCCN2CCOCC2)c1 | – | active: 14.1 µM
56 | Cn1c2ccccc2c2cc(/C=N/NC(=O)c3cc(O)ccc3O)ccc21 | – | active: 25.1 µM
57 | O=C(N/N=C/c1c(Cl)[nH]c2ccccc12)c1ccc2c(c1)OCCO2 | inactive: -9.37% | –
58 | O=c1nc(N/N=C/c2ccco2)cn[nH]1 | – | active: 17.7 µM
59 | Cc1cc(C(=O)NNC(=S)NC(=O)/C=C/c2ccccc2Cl)n[nH]1 | – | inconclusive: 17.7 µM [activator, single point]
60 | O=C(Nc1cccc(N=Cc2cc(Br)cc(Br)c2O)c1)c1ccco1 | – | inconclusive: 22.3 µM [inhibitor, partial curve, poor fit]
61 | Cc1c(N=Cc2nc3ccccc3n2C)c(=O)n(-c2ccccc2)n1C | inactive: 2.61% | –
62 | CCCN1C(=O)S/C(=C/c2ccc(N3CCOCC3)o2)C1=O | – | inconclusive: 7.92 µM [inhibitor, partial curve, poor fit]
63 | CC(=O)Oc1c(Br)cc(N(C(C)=O)S(=O)(=O)c2ccccc2)c2ccccc12 | – | active: 28.2 µM
64 | COCCNCC(=O)N1c2ccccc2Sc2ccccc21 | – | inconclusive: 15.8 µM [inhibitor, single point]
65 | O=C(CCN1CCCCCC1)Nc1ccc2c(c1)OCCO2 | – | inconclusive: 15.8 µM [inhibitor, partial curve]
66 | Cc1csc(NC(=O)Cc2coc3cc(C)c(C(C)C)cc23)n1 | inactive: -1.23% | –
67 | COc1ccc(NCc2cc3ccccc3[nH]c2=O)cc1 | – | inconclusive: 11.2 µM [inhibitor, partial curve]
68 | CC1=CC(=O)c2c(O)cccc2C1=O | – | inconclusive: 0.112 µM [inhibitor, full curve]
69 | CSCCC(N=C(NS(=O)(=O)c1ccc(C)cc1)c1ccccc1)C(=O)O (stereo not drawn) | inactive: 0.654% | –
70 | CC1C(=O)NN=C1C(=O)N/N=C\c1ccc(O)cc1O (stereo not drawn) | inactive: -23.4% | –
71 | CCOc1ccccc1C(=O)N[C@H](C(=O)Nc1ccc(OC)c(S(=O)(=O)N2CCOCC2)c1)C(C)C | inactive: -6.96% | –
72 | NC(=O)c1cc(S(=O)(=O)N2CCCCC2)cs1 | inconclusive: 60.1% [activator] | –
73 | O=C(Nc1ccc(F)c(F)c1)c1cccnc1 | inactive: 5.74% | –
74 | COc1cc(OC)c(-c2c3cc(O)c(=O)cc-3oc3cc(O)c(O)cc23)cc1OC | – | inconclusive: 5.61 µM [inhibitor, partial curve]
75 | Cc1cc(Oc2ccc(=O)n(C)n2)nc(=S)[nH]1 | – | inconclusive: 2.81 µM [inhibitor, full curve, poor fit]
76 | COc1ccc(/C(C)=N/NC(=O)CNC(=O)C2COc3ccccc3O2)c(OC)c1 (stereo not drawn) | inactive: 7.91% | –
77 | NC(=S)N/N=C/c1ccc(C(F)(F)F)cc1 | – | inconclusive: 17.7 µM [inhibitor, single point]
78 | Cc1nn(-c2ccccc2)c(Cl)c1/C=C(\CC(=O)O)c1nc2ccccc2s1 | – | inconclusive: 19.9 µM [activator, single point]
